From patent US20150307576A1, “FGF-10 COMPLEXES” (PERMEON BIOLOGICS, INC., priority 2012, published 2015) come the findings set out here.

The test system of one experiment is Hela cells. In words: Internalization of FGF10-mCherry fusion proteins, flow cytometry. The format is cell-based. The conditions noted are these: 2 uM, 2 h. The procedure: (§1) On the day prior to the assay, 10^6 HepG2 or Hela cells were plated in each well of a 6-well plate and incubated in the 37° C. CO2 incubator. The cells were washed once with PBS and then were replenished with 2 mL of growth media containing 2 uM of wild-type (wt) or mutant (mut) FGF10-mCherry fusion proteins and were incubated for 2 h in the 37° C. CO2 incubator. The cells were then washed twice with PBS and detached with 0.25% trypsin/EDTA. The cells were washed one more time with PBS and then analyzed using a BD Accuri™ C6 flow cytometer. The level of internalization was quantified as the mean intensity of mCherry fluorescence in the cells. As shown in the table below, the mCherry fusion proteins that included the tetramutant FGF10 internalized equally well as the mCherry fusion proteins that included wild-type FGF10 in both HepG2 and Hela cells. For both tested fusion proteins, the FGF10 portion is the domain of FGF10 set forth in SEQ ID NO: 2. The mut FGF10 has the following four substitutions: R78A, T114A, E158A, K195A).

Another experiment relates to HepG2 cells. The description is as above. The format is cell-based. To be noted: 2 uM, 2 h. The procedure:
as §1

B1: mut FGF10-mCherry: mCherry fusion protein with tetramutant FGF10 domain, SEQ ID NO: 11 (protein)
chain: MEQKLISEEDLGSGRHVRSYNHLQGDVAWRKLFSFTKYFLKIEKNGKVSGTKKENCPYSILEIRSVEIGVVAVKAINSNYYLAMNKKGKLYGSKEFNNDCKLKERIEANGYNTYASFNWQHNGRQMYVALNGKGAPRRGQKTRRANTSAHFLPMVVHSGHGGGGSGGGGS[about 250 residues omitted]LEGHGHHHHHH
B1: the figures for the “mean intensity of mCherry fluorescence” value in the experiment with Hela cells and in the experiment with HepG2 cells were 62,950 and 42,566, respectively.
